The record followed here is the RNAGym collection of RNA variant scans (doi:10.1073/pnas.2313332121).

The labels stand for the following.
B1: TPR 5TU (parent)
chain: GGAUCUUCUCGAUCUAACAAAAAAGACAAAUCUGCCACAAAGCUUGAGAGCAUCUUCGGAUGCAGAGGCGGCAGCCUUCGGUGGCGCGAUAGCGCCAACGUUCUCAACUAUGACACGCAAAACGCGUGCUCCGUUGAAUGGAGUUUAUCAUG

Variants at the floor of the assay are shown more often than the library holds them.

In this data set the parent is B1. The experiment in a line: polymerase ribozyme fitness, log enrichment relative to wild type (log ratio); higher = more active; in vitro selection for triplet polymerase activity. The method in brief: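 Mutant libraries were PCR-built and transcribed for each subunit of a heterodimeric triplet polymerase ribozyme and selected for one round in triplicate at −7 °C, frozen, before gel excision of extended constructs and streptavidin-bead capture. Input and output libraries were Illumina-sequenced, keeping genotypes with ≥10 input reads and ≥1 read per output. Fitness is a logarithmic ratio of genotype to wild-type enrichment, in base 2, using inverse-variance-weighted replicate averages.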
Take GGAUCUUCUCGAUCUAACAAAAAAGACAAAUCUGCCGCAAAGCUUGAGAGUAUCUUCGGAUGCAGAGGCGGUAGCCUUCGGUGGCGCGAUAGCGACAACGUUCUCAACUAUGACACGCAAAACGCGUGCUCCGUUGAUUGGAUUUUAUCAUG [A37G C51U C72U C95A A138U G143U]: the “polymerase ribozyme fitness (log ratio)” value is at most -4.2.
As to GGAUCUUCUCGAUCUAACAAAAAAGACAAAUCUGCCGCAAAGCUUGAGAGCAUCUUCGGAUGCAGAGGCGUCGGCCUUCGGUGGCGCGAUAGGGCCAAAGUUCUCAACUAUGACACGCAAAACGCGUGCUACGUUGAAUGGAGUUUAUCAUG [A37G G71U A73G C93G C99A C131A], the “polymerase ribozyme fitness (log ratio)” value is at most -4.2.
With GGAUCUUCUCGAUCUAACAAAAAAGACAAAUCUGCCUCCAAGCUUGAGAGCAUCUUAGGAUGCAGAGGCGGCAGCCUUCGGUGGCGCGAUAGUGCCUACGUUCGCAACUAUGACAAGCAAAACGCGUGCUCCGUUGAAUGGAGUUUAUCAUG [A37U A39C C57A C93U A97U U104G C116A], the “polymerase ribozyme fitness (log ratio)” value is at most -4.2.
Next, GGAUCUUCUCGAUCUAACAAAAAAGACAAAUCUGCCGCACAGCUUGAGAGCCUCUUCGGAUGCAGAGGCGGCAGCCUUCGGUGGCGCGAUACCGCCAACGUUCUCAACUAUGACACGCAAAACGCGUGCUCCGUUGAAUGGAGUUUAUCAUG [A37G A40C A52C G92C]: at most -4.2.
As for GGAUCUUCUCGAUCUAACAAAAAAGACAAAUCUGCCUCAAAGCUUGAGGGCAUCUUCGGAUGCAGAGGCGGCAGCAUUCGGUGGCGCGAUAGCGCCAACGUUCUCAACUAUGACACGCAAAACGCGUGCUCCGUUGAAUGGAGUUUAUCAAG [A37U A49G C76A U151A], the “polymerase ribozyme fitness (log ratio)” value was at most -4.2.
As to GGAUCUUCUCGAUCUAACAAAAAAGACAAAUCUGCCGCAAAGCUUGAGAGCAUCUUCGGAUGCAGAGGCGGCAGCCUUCGGUGGUGCGAUAGCGCCAACGUUCUCAACUAUGACACGCAAAACGCGUGCUCCGUUGAAUGGAGUUUAUCAUG [A37G C85U], the “polymerase ribozyme fitness (log ratio)” value is -2.1.
Take GGAUCUUCUCGAUCUAACAAAAAAGACAAAUCUGCCGCAAAGCUUGCGAGCAUCUUCGGAUGCAGAGGCGGCAGCCUUCGGUGGCGCGAUAGCGCCAACUUUCUCAACUAUGACACGCAAAACGCGUGCUCCGUUGAAUGGAAUUUAUCAUG [A37G A47C G100U G143A]: the “polymerase ribozyme fitness (log ratio)” value was at most -4.2.
The same measure for GGAUCUUCUCGAUCUAACAAAAAAGACAAAUCUGCCUCACAGCUUGAGAGCAUCUUCGGAAGCAGAGGUGGCAGCCUUCGGUGGCGCGAUACCGCCAACGUUCUCAACUAUGACACGCAAAACGCGCACUCCGUUGAAUGGAGUUUAUCAUG [A37U A40C U61A C69U G92C U127C G128A]: at most -4.2; for GGAUCUUCUCGAUCUAACAAAAAAGACAAAUCUGCCUCAAAGCUUGAGGGCAUCGUCGGAUGCAGAGGCGGCAGUCUUCGGUGGCGCGAUAGCGCCAACUUUCUCAACUAUGACACGCAAAACGCGUGCUCCGUUGACUGGGGUUUAUCAUG [A37U A49G U55G C75U G100U A138C A142G]: at most -4.2.
Next, GGAUCUUCUCGAUCUAACAAAAAAGACAAAUCUGCCGCAAAGCUUGAGAGCAUCUUCGGAUGCAGAGGCGGCAGCCUUCGGUGGCGCGAUAGCGCUAACGUUCUGAACUAUGACACGCAAAACGCGUGCUCCGUUGAAUGGAGUUUAUCAUG [A37G C96U C105G]: -3.63; GGAUCUUCUCGAUCUAACAAAAAAGACAAAUCUGCCGCAAAGCUUGAGAGCAUCUUCGGAUGCAGAGGCGGCAGCCUUCGGUGGCGCGAUAGCGCCGGCGUUCUCAACUAUGACACGCAAAACGCGUGCUCCGUUGAAUGGAGUUUAUCAUG [A37G A97G A98G]: -2.55; GGAUCUUCUCGAUCUAACAAAAAAGACAAAUCUGCCGCAAAGCUUGAGAGCAUCUUCGGAUGCAGAGGCGGCAGCCUUCGGUGGCGCGAUAGAGCCAACGUUCUCAACUAUGACACGCAAAACGCGUGCUCCGUUGAAUGGAGUGUAUCAUG [A37G C93A U145G]: -3.99.
On to GGAUCUUCUCGAUCUAACAAAAAAGACAAAUCUGCCGCAAAGCUUGAGAGCAUCUUCGGGUGCAGAGGCGGCAGCCUUCGGUCGCGCGAUAGCGCUAACGUUCUCAACUAUGACACGCAAAACGCGUGCUCCGUUGAAUGUAGUUUAUCAUG [A37G A60G G83C C96U G141U], for which the “polymerase ribozyme fitness (log ratio)” value was -2.58.
Next, GGAUCUUCUCGAUCUAACAAAAAAGACAAAUCUGCCGCAAAGCUGGAGAGCAUCUUGGGAUGCAGAGGCGGCAGCCUUCGGUGGCGCGAUAGCGUCAACGUUCUCAACUAUGACACGCAAAACGCGUGCUCCGUUGAAUGGAGUUUAUCAUG [A37G U45G C57G C95U]: -3.33.
Regarding GGAUCUUCUCGAUCUAACAAAAAAGACAAAUCUGCCGCAAAGCUUGAGAGCAUCUUCGGAUGCAGAGGCGGCAGCCUUCGCUGGCGCCAUAGCGCCAACGUUCUCAACUAUGACACGCAAAACGCGGGCUCCGUUGAAUGGAAUUUAUCAUG [A37G G81C G88C U127G G143A], the “polymerase ribozyme fitness (log ratio)” value is at most -4.2.
For the variant GGAUCUUCUCGAUCUAACAAAAAAGACAAAUCUGCCGCAAAGCUUGAGAGCAUCUUCGGAUGCAGUGGCGGCAGCCUUCGGUGGCGCGAUAGGGCCAACGUUCUCAACUAUGACACGAAAAACGCGUGCUCCGUUGAAUGAAGUUUAUCAUG [A37G A66U C93G C118A G141A], the “polymerase ribozyme fitness (log ratio)” value was at most -4.2.
As to GGAUCUUCUCGAUCUAACAAAAAAGACAAAUCUGCCGCAAAGCUUGAGAGCAUCUUCGGAUGCAGAGGCGGCACCCUUCGGUGGCGCGAUAGCGCCAACGUUCUCAACUAUGACACGCAAAACGCGUGCUCCGUUGAAUGGAGUUUAUCAUG [A37G G74C], the “polymerase ribozyme fitness (log ratio)” value was at most -4.2.
Turning to GGAUCUUCUCGAUCUAACAAAAAAGACAAAUCUGCCGCAAAGCUUGAGAGCAUCUUCGGAUGCAGAGGCGGCAGCCUUCGGUGACGCGAUAGCGCCAACGGUCUCAACUAUGACACGCAGAACGCGUGCUCCGUUGAAUGGAGUUUAUCAUG [A37G G84A U101G A120G], the “polymerase ribozyme fitness (log ratio)” value is -2.6.
For the variant GGAUCUUCUCGAUCUAACAAAAAAGACAAAUCUGCCUCAACGCUUGAGAGCAUCUUCGGCUGCAGAGGCGGCAGCCUUCGGUGACGCGAUAGCGCCAACGUUCUCAACUAUGACACGCAAAACGCGUGCUCCGUUGAAUGGAGUUUACCAUG [A37U A41C A60C G84A U148C], the “polymerase ribozyme fitness (log ratio)” value is at most -4.2.
